{
  "source": "PubChem BioAssay AID488969",
  "about": "(Vanderbilt High Throughput Screening Facility, 2010)",
  "note": "In all, about 110,000 compounds were measured (“z-score”: median about -0.1, highest 2% from about 2 on). Some of the results follow. The source made the active and inactive calls.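 Rule for the calls: active = z-score in the third read window above 3 or below -3; inactive = the rest.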",
  "data": [
    {"molecular_target": "Metabotropic glutamate receptor 8 (Rattus norvegicus) (UniProt P70579)", "sequence (P70579 whole entry, looked up)": "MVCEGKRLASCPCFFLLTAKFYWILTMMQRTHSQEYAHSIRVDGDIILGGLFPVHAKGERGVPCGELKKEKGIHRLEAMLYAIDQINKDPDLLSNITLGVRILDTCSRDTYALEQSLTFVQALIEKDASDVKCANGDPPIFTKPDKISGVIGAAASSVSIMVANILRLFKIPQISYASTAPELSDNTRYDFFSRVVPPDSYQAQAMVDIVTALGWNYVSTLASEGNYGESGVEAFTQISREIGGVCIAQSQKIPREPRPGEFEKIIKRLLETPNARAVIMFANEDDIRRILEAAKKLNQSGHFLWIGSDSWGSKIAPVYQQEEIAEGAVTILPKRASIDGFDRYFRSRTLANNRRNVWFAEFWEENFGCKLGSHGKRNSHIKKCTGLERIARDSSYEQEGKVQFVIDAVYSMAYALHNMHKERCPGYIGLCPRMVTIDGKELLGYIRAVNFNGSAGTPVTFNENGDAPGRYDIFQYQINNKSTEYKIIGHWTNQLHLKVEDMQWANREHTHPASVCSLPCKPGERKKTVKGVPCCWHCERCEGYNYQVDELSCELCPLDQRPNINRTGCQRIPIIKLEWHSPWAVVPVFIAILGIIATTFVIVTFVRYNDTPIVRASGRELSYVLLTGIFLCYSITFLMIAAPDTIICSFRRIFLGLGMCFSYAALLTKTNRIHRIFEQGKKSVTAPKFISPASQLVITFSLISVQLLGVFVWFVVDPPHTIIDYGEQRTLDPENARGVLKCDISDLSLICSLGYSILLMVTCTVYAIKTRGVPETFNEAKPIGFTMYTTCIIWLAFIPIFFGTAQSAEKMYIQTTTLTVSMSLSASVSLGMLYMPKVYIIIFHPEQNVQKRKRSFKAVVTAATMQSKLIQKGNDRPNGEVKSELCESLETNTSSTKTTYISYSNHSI", "test": "mGluR8 Gi/Go-coupled signaling modulation – cell-based, rat, thallium flux, HTS, primary screen (AID 488969)", "conditions": "HEK293 rat mGluR8, GIRK (G protein-gated inwardly rectifying potassium channel) thallium flux, FluoZin2; at 10 µM; stronger effect = higher value; submaximal glutamate (EC20) added with thallium", "values": [
      {"smiles": "CCCCc1ccc(-c2nc(NC(=O)C3C4CCC(O4)C3C(=O)O)sc2C)cc1", "note": "(configuration not stated)", "z-score": -0.0109},
      {"smiles": "CN(c1cccc(NC(=O)c2ccccc2N(C)S(C)(=O)=O)c1)S(C)(=O)=O", "z-score": -0.0724},
      {"smiles": "CCOC(=O)c1[nH]c(C)c(C(=O)NCc2ccc(OC)cc2)c1C", "z-score": -0.442},
      {"smiles": "Cc1cccc(-c2noc(CCC(=O)NCc3ccco3)n2)c1", "z-score": -0.178},
      {"smiles": "CCCn1nc(-c2nnc(-c3ccc(C)c(C)c3)o2)c2ccccc2c1=O", "z-score": 0.372},
      {"smiles": "Cc1[nH]nc(N=CC2=C(O)CC(C)(C)CC2=O)c1-c1ccccc1", "z-score": -0.178},
      {"smiles": "COc1ccc(C2Nc3ccc4ccccc4c3-c3c2c(=O)oc2ccccc32)cc1", "note": "(configuration not stated)", "z-score": 0.892},
      {"smiles": "CCn1c(SCC(=O)c2c[nH]c3ccccc23)nc2cc(S(=O)(=O)N3CCOCC3)ccc21", "z-score": -0.307},
      {"smiles": "CC1=NN(c2ccccc2)C(=O)/C1=C/c1c(O)n(-c2ccc(F)c(Cl)c2)[nH]c1=O", "z-score": -0.788},
      {"smiles": "CCCCc1nc(SCC(=O)Nc2ccc(S(N)(=O)=O)cc2)n[nH]1", "z-score": -0.0229},
      {"smiles": "O=C(Nc1ccc2c(c1)OCO2)C1CCN(S(=O)(=O)c2cccc3cccnc23)CC1", "z-score": -0.165},
      {"smiles": "O=[N+]([O-])c1ccc([C@H](O)[C@H](CO)N=Cc2ccccc2O)cc1", "z-score": -0.236},
      {"smiles": "CCCN(CCC)CCNC(=O)C(NS(=O)(=O)c1ccc2c(c1)CCC(=O)N2)c1ccccc1", "note": "(configuration not stated)", "z-score": "active: 10"},
      {"smiles": "Cc1ccc(C(=O)NNC(=O)c2cccnc2SCc2cccc([N+](=O)[O-])c2)cc1", "z-score": -0.0883},
      {"smiles": "C/C(=C\\C(=O)c1cccnc1)Nc1ccc(C)c(C)c1", "z-score": 0.541},
      {"smiles": "CCOC(=O)C1CCN(c2c(NCCCN(CC)c3ccccc3)c(=O)c2=O)CC1", "z-score": 0.189},
      {"smiles": "O=C(c1cc2nc(-c3cccs3)cc(C(F)(F)F)n2n1)N1CCCc2ccccc21", "z-score": -0.37},
      {"smiles": "Cc1cccc(NS(=O)(=O)c2c(C)n[nH]c2C)c1", "z-score": -0.177},
      {"smiles": "CN1C(=O)/C(=C/c2ccccc2OCc2cccc(F)c2)N(C)C1=S", "z-score": -0.268},
      {"smiles": "C/C=C/c1ccccc1OCc1ccc(C(=O)O)o1", "z-score": -1.02},
      {"smiles": "CC(=O)N(CN1C(=O)c2ccc([N+](=O)[O-])cc2C1=O)c1ccc(F)cc1", "z-score": -0.119},
      {"smiles": "C/C(=N\\NC(=O)c1ccccc1)c1cc2cc([N+](=O)[O-])ccc2oc1=O", "z-score": -0.275},
      {"smiles": "COc1ccc(/C=N/NC(=O)c2ccccc2Cl)cc1CSc1nc2ccccc2s1", "z-score": 0.259},
      {"smiles": "O=C(CN1CCN(c2ccccc2F)CC1)c1ccc2cc[nH]c2c1", "z-score": -0.111},
      {"smiles": "O=c1nc2ccccc2c2n1CC(CN1CCN(c3cccc(Cl)c3)CC1)N2", "note": "(configuration not stated)", "z-score": -0.206},
      {"smiles": "CC(=O)C1(O)C(C)CC2C3CCC4CC(O)CCC4(C)C3=CCC21C", "note": "(configuration not stated)", "z-score": 0.00674},
      {"smiles": "N#CC(C(=O)Nc1ccccc1)=C1Nc2ccccc2N1", "z-score": -0.369},
      {"smiles": "Cc1ccc(NC(=S)NCC2CCCO2)c(OC(F)F)c1", "note": "(configuration not stated)", "z-score": 0.621},
      {"smiles": "CCCCOc1cccc(C(=O)N(Cc2cccs2)C2CCS(=O)(=O)C2)c1", "note": "(configuration not stated)", "z-score": -1.45},
      {"smiles": "COc1ccc(-c2nc3ccccc3c(=O)n2CCCN2CCOCC2)cc1", "z-score": -0.264},
      {"smiles": "Cc1ccc2c(c1)C(c1ccc([N+](=O)[O-])cc1)=NNC(c1ccc(Br)cc1)=N2", "z-score": -0.123},
      {"smiles": "O=C(NCC1CCCO1)C(c1cccs1)N(C(=O)Cn1nnc(-c2cccs2)n1)C1CCCC1", "note": "(configuration not stated)", "z-score": -0.378},
      {"smiles": "O=C(NC(=S)Nc1ccccn1)c1cc(-c2ccccc2)nc2ccccc12", "z-score": "active: 3.22"},
      {"smiles": "CCc1cc(C(=O)OC)c(N2C(=O)C3C4C=CC(C4)C3C2=O)s1", "note": "(configuration not stated)", "z-score": 0.0635},
      {"smiles": "Cc1ccc(S(=O)(=O)N2CCN(S(=O)(=O)N3CCOCC3)CC2)c(C)c1", "z-score": -1.14},
      {"smiles": "CCOC(=O)c1c(C)c(C(=O)NCc2ccccc2OC)c(C)n1C", "z-score": -0.402},
      {"smiles": "COCCn1c(SCC(=O)Nc2ccc(S(=O)(=O)N3CCOCC3)cc2)nc2ccccc21", "z-score": -1.59},
      {"smiles": "CCc1nn2c(=O)cc(CSc3nc(C)cc(=O)[nH]3)nc2s1", "z-score": -0.245},
      {"smiles": "Cc1noc(C(=O)Nc2cccnc2)c1Cl", "z-score": -0.119},
      {"smiles": "CCn1c2ccccc2c2cc(NC(=O)C(C)Oc3ccc(OC)cc3)ccc21", "note": "(configuration not stated)", "z-score": -0.27},
      {"smiles": "Cc1ccc(-c2cc(-c3ccccc3C)[nH]n2)c(O)c1", "z-score": -0.115},
      {"smiles": "O=C(N/N=C/C=C/c1ccco1)c1cccnc1", "z-score": 0.249},
      {"smiles": "CCOC(=O)N1C(=O)C2(CCCCC2)N(c2ccccc2Cl)C1=S", "z-score": 0.172},
      {"smiles": "CCCn1nc(C(=O)N2CCc3ccccc3C2)c2ccccc2c1=O", "z-score": -1.93},
      {"smiles": "COC(=O)c1cc2ccsc2n1CC(=O)N(C)c1ccccc1", "z-score": -0.42},
      {"smiles": "O=C(N/N=C/c1c[nH]c2ccccc12)C1COc2ccccc2O1", "note": "(configuration not stated)", "z-score": -0.169},
      {"smiles": "O=C(CCCN1C(=O)c2ccccc2C1=O)Oc1ccc(Cl)cc1", "z-score": -0.318},
      {"smiles": "Cn1c(=O)c2c(nc(CN3CCN(c4ccccc4F)CC3)n2CCN2CCOCC2)n(C)c1=O", "z-score": 0.0673},
      {"smiles": "O=C(NCCC1=CCCCC1)c1ccc(CN2CCOCC2)cc1", "z-score": -0.423},
      {"smiles": "Cc1ccc(CN(C(=O)Cc2cccs2)C(C(=O)NC2CCCC2)c2ccncc2)cc1", "note": "(configuration not stated)", "z-score": -0.319},
      {"smiles": "CCn1c(CSc2nc3ccccc3s2)nnc1SCC(=O)NCC(=O)OC", "z-score": -0.0142},
      {"smiles": "O=C(Nc1nccs1)NC1CCCCC1", "z-score": 1.72},
      {"smiles": "O=[N+]([O-])c1ccc(Oc2ccc(S(=O)(=O)N3CCCCC3)cc2)cc1", "z-score": 0.0199},
      {"smiles": "NS(=O)(=O)c1ccc(NCc2cc(Cl)ccc2OCc2ccccc2F)cc1", "z-score": -0.074},
      {"smiles": "Cc1c(Cc2ccccc2)c(=O)oc2cc(OCC(=O)c3ccccc3)ccc12", "z-score": -0.276},
      {"smiles": "C=CCn1c(SCC(=O)N2CCCCC2)nc(O)cc1=O", "z-score": 0.59},
      {"smiles": "O=C(CCC(=O)NC1CCCCCC1)Nc1nnc(C(F)(F)F)s1", "z-score": -0.133},
      {"smiles": "O=c1[nH]c(NCc2ccco2)nnc1Cc1ccccc1Cl", "z-score": -0.29},
      {"smiles": "CC1N=C2c3ccccc3N=C(SCc3cc(=O)n4cc(Cl)ccc4n3)N2C1=O", "note": "(configuration not stated)", "z-score": -1.82},
      {"smiles": "Cc1ccccc1-n1c(-c2csc(C)c2C)n[nH]c1=S", "z-score": -0.0223},
      {"smiles": "CC(C)(C)C(=O)Cn1c(=N)n(Cc2ccccc2Cl)c2ccccc21", "z-score": 1.8},
      {"smiles": "Cc1ccc(-c2nn(C)c(=O)c3ccccc23)cc1S(=O)(=O)NCCN1CCOCC1", "z-score": 0.0109},
      {"smiles": "O=C(NC(Cc1c[nH]c2ccccc12)c1nnc2n1CCCCC2)c1ccccc1", "note": "(configuration not stated)", "z-score": 0.155},
      {"smiles": "CC(C)Cc1nc2oc3c(NCC4CCCO4)ncnc3c2c2c1CCC2", "note": "(configuration not stated)", "z-score": -1.17},
      {"smiles": "Cn1c(CC(=O)Nc2ccccc2)nnc1SCC(=O)c1ccccc1", "z-score": -0.152},
      {"smiles": "Cc1sc(NC(=O)c2oc3ccccc3c2C)c(C#N)c1C", "z-score": 1.76},
      {"smiles": "COC(=O)c1ccc(CNC(=O)COc2ccccc2Br)o1", "z-score": 0.0873}
    ]}
  ]
}
